From PubChem BioAssay AID504339 (National Center for Advancing Translational Sciences (NCATS), 2011)
The whole screen tested about 390,000 compounds, of which about 17,000 (4.4%) were called active. This list was built around the results that the source calls inconclusive (neither active nor inactive); the mix of calls is not that of the screen. Calls come from the whole dose curve; as a rule, active = well fitted inhibition curve with a large enough effect; inconclusive = small, poorly fitted or top-dose-only effect; inactive = no such curve, though single readings can be large or run the other way. Where the call is inconclusive, the potency comes from a doubtful curve fit.

These compounds were tested against Lysine-specific demethylase 4A (Homo sapiens) (UniProt O75164) (assay: qHTS Assay for Inhibitors of JMJD2A-Tudor Domain). Conditions: AlphaScreen JMJD2A-Tudor / H3K4me3 peptide binding; activity change, negative = inhibition: at 114 µM (top of the series).
Chain of UniProt O75164 (O75164 whole entry, looked up, the tested form may be a part): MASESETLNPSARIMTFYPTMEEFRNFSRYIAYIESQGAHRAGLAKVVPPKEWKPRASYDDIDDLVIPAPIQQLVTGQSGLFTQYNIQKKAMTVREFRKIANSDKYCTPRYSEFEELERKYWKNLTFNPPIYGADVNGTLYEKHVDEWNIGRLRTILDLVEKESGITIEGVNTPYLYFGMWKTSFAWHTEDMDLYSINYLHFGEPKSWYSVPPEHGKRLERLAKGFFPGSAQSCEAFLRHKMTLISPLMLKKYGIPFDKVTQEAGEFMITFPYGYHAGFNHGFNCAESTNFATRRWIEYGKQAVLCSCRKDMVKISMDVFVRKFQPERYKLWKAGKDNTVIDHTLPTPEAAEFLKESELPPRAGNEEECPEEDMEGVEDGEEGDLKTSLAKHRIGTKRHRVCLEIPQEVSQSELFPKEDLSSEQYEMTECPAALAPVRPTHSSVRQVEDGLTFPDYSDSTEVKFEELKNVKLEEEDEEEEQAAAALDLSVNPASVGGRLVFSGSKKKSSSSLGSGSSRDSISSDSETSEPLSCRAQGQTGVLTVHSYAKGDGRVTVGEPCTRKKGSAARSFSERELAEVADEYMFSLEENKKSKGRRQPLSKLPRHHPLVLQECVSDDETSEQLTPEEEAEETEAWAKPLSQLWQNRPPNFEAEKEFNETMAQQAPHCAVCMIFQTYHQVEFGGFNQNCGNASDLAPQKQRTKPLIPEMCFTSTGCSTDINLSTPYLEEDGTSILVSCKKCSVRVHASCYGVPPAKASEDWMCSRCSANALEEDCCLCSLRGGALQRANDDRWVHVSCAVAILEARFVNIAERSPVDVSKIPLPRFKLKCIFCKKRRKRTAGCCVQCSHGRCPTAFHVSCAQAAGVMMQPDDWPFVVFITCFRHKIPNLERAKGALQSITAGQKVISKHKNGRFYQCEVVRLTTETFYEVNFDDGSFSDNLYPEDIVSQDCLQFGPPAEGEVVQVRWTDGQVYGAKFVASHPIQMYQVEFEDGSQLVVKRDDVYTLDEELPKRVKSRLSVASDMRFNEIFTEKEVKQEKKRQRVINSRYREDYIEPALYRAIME
Source text: JMJD2A is a jumonji-domain-containing lysine demethylase that uses Fe(II) together with 2-OG to effect oxidative demethylation of histones. Methylation is one of many […] modification that affect epigenetic transcription. […] It is proposed that the functions of JmjD2A binding to the histones, is to maintain marks after they are installed and to spread the modifications by […], establishing a self-propagating cycle for rapid methylation over a large area of chromatin. […] Thus, small molecule targeting of the JMJD2A-tudor domain interaction with its target methylhistone mark is expected to enable sophisticated experiments probing the fine regulatory pathways leading to selective demethylation of a given methyllysine locus based on the methylation state of adjacent histone marks. A quantitative high throughput AlphaScreen has been developed to identify small molecule inhibitors based on a protocol published by NCGC and SGC [4].
Although AlphaScreen has significant advantages with its utility in a variety of epigenetic target assays, the primary screening data provided in this deposition should be used with caution due to the prevalence of screening artifacts. The top compound concentration tested was high (>100uM) in this assay, which increases number of actives and potential artifacts. An AlphaScreen counterscreen is highly recommended to be run against any putative actives to eliminate non-specific artifacts. Alternatively, one can use other AlphaScreen assays in PubChem to filter out promiscuous hits.
[1] Lee, J. et al. Distinct binding modes specify the recognition of methylated histone H3K4 and H4K20 by JMJD2A-tudor. Nat Struct Mol Biol. 15(1); 109-11. 2008. PMID: 18084306
[2] Yasgar, et al. Compound Management for Quantitative High-Throughput Screening. JALA. 2008 Apr;13(2):79-89. PMID: 18496600
[3] Inglese, et al. Quantitative high-throughput screening: a titration-based approach that efficiently identifies biological activities in large chemical libraries. Proc Natl Acad Sci. 1;103(31):11473-8. 2006. PMID: 16864780
[4] Quinn et al. A homogeneous method for investigation of methyl-dependent protein-protein interactions in epigenetics. Nucleic Acids Res., 38(2):e11. 2010. PMID: […]
[5] Baell,Holloway. New substructure filters for removal of pan assay interference compounds (PAINS) from screening libraries and for their exclusion in bioassays. J Med Chem. 53(7):2719-40. 2010. PMID: 20131845
NIH Molecular Libraries Probe Production Network [MLPCN]
NIH Chemical Genomics Center [NCGC]
Structural Genomics Consortium (SGC)
To each well of a 1,536w plate, 2ul of JMJD2A-Tudor (final 100nM) and 1ul biotinylated histone peptide methylated at Lys4 [b-H3(1-18)K4me3] (final 50nM) were added in 1x PBS buffer, pH 7.4, containing 0.01% Tween-20, using a nanoliter dispenser. Formation of a protein-peptide complex proceeded at room temperature for 30 min. A Kalypsys pin-tool transferred 23nl of library compound solution in DMSO to each well. Following a 30 min incubation of the protein-peptide complex with compounds at room temperature, a mixture of 40 µg/mL each streptavidin-coated donor and nickel chelate acceptor AlphaScreen beads (final 10 µg/mL) was added in a 1ul dispense for a final volume of 4ul, followed by a brief centrifugation (1000 rpm, 1 min). Plates were incubated protected from the light for 20 min at room temperature. Microplates were then read on an EnVision multilabel plate reader using the 1,536 plate HTS AlphaScreen aperture (excitation time 80 ms, measurement time 240 ms).
% is set by controls: 0 for no effect and ±100 for the full control effect; potency is the fitted concentration of half-maximal effect; tags give direction and shape of the fitted curve.
Note: nearly all actives have a fitted effect of over 50% in size.

SMILES | Potency | activity change, negative = inhibition
O=C(O)CN1C(=O)CN=C(c2ccccn2)c2cc(Cl)ccc21 | active: 25.1 µM | –
CCCCN1C(=O)NC(=O)/C(=C/c2cnc(SC)nc2)C1=O | inconclusive: 79.4 µM [inhibitor, single point] | –
CCN(CC)c1ccc([N+](=O)[O-])c2cccnc12 | inconclusive: 20 µM [inhibitor, partial curve] | –
O=C1NC(=O)N(CCC2=CCCCC2)C(=O)/C1=C\c1cccs1 | inconclusive: 50.1 µM [inhibitor, partial curve] | –
O=C(N/N=C/c1c(O)n(C2CC2)c(=S)[nH]c1=O)c1ccccc1 | active: 56.2 µM | –
COc1cccc(-n2c(/C=C/c3ccc(O)c(O)c3)nc3ccccc3c2=O)c1 | inconclusive: 56.2 µM [inhibitor, partial curve] | –
CC(=O)c1ccc2c(c1)C1C(Cl)C(Sc3ccccc3[N+](=O)[O-])CC1C(c1ccccc1[N+](=O)[O-])N2 (stereo unspecified) | – | inactive: -30%
O=C1CN=C(c2ccccc2Cl)c2cc(Cl)ccc2N1Cc1cccc(Cl)c1 | – | inactive: -16%
COC(=O)C1=C(c2ccc(F)cc2F)C[C@@H]2CC[C@H]1N2C(=O)NCc1ccc(F)cc1 | inconclusive: 100 µM [inhibitor, partial curve] | –
COc1ccc(N2C(=O)/C(=C/c3cc(C)n(-c4ccc(C)cn4)c3C)C(=O)NC2=S)c(OC)c1 | active: 39.8 µM | –
S=c1[nH]nc(-c2ccco2)n1Cc1ccccc1 | active: 7.08 µM | –
CCCC[N+]1(C)C2CC(OC(=O)C(CO)c3ccccc3)CC1C1OC12 (stereo unspecified) | – | inactive: -1.44%
O=C(N/N=C/c1c(O)n(CCc2ccccc2)c(=O)[nH]c1=O)c1ccccc1O | inconclusive: 79.4 µM [inhibitor, single point] | –
CC(C)=CCSc1nnc([C@@H](N)Cc2c[nH]c3ccccc23)o1 | inconclusive: 50.1 µM [inhibitor, partial curve] | –
COC(=O)CCC(=O)Nc1sc(Cc2ccccc2)c(C)c1C(N)=O | inconclusive: 79.4 µM [inhibitor, partial curve] | –
COc1ccc2c(c1)C(c1ccc(N(CCCl)CCCl)cc1)=NCC2 | inconclusive: 56.2 µM [inhibitor, partial curve] | –
CCCCC1(CCO)C(=O)NC(=S)NC1=O | – | inactive: -12.4%
Cc1cccc(N=C2c3cc([N+](=O)[O-])ccc3-c3c2cc([N+](=O)[O-])cc3[N+](=O)[O-])c1 | active: 3.55 µM | –
O=[N+]([O-])c1ccccc1CNCCc1ccc(F)cc1 | active: 10 µM | –
O=C1CC(=O)N(c2cccc(Cl)c2)C(=O)N1 | – | inactive: -20.9%
NC(=O)c1cn(C2CCCCC2)c2ccccc2c1=O | – | inactive: -0.685%
CC1C2Cc3ccc(O)cc3[C@]1(C)CCN2CCc1ccccc1 (stereo partly specified) | inconclusive: 79.4 µM [inhibitor, single point] | –
COc1ccc(C=C2C(=O)NC(=S)NC2=O)cc1OC | active: 22.4 µM | –

SMILES | Potency | activity change, negative = inhibition
O=c1[nH]c(=S)n(Cc2ccco2)c(O)c1C=NCc1cccs1 | inconclusive: 44.7 µM [inhibitor, partial curve] | –
COC(=O)C1=C(N)Oc2cc(C)oc(=O)c2C12C(=O)Nc1ccccc12 (stereo unspecified) | inconclusive: 14.1 µM [inhibitor, full curve, poor fit] | –
Cc1ccc(CN2C(=O)c3ccccc3Sc3ccc(C(=O)N4CCC5(CC4)OCCO5)cc32)cc1 | inconclusive: 56.2 µM [inhibitor, partial curve, poor fit] | –
Clc1cccc(Cl)c1CN1CCN(c2ccccc2)CC1 | active: 3.16 µM | –
C[N+](C)(C)CC1CCCc2ccccc2C1=O (stereo unspecified) | – | inactive: -2.08%
C[C@H]1COC2=C1C(=O)C(=O)c1c2ccc2c1CCCC2(C)C | active: 31.6 µM | –
CCOC(=O)C(=O)NC1CCSC1=O (stereo unspecified) | – | inactive: -4.91%
C/C(O)=C(\C#N)C(=O)Nc1cc(Br)ccc1Br | inconclusive: 89.1 µM [inhibitor, single point] | –
COc1ccc2c(c1)NP(=S)(Oc1ccccc1)N2 (stereo unspecified) | inconclusive: 56.2 µM [inhibitor, partial curve] | –
COc1ccccc1N=C1SCCCN1C | active: 56.2 µM | –
COc1cccc(OC)c1C1=NCC(=O)Nc2c1oc1ccc(Br)cc21 | inconclusive: 89.1 µM [inhibitor, single point] | –
O=c1[nH]c(O)c(N=Nc2ccc3c(c2)OCCO3)c(=O)[nH]1 | inconclusive: 56.2 µM [inhibitor, partial curve, poor fit] | –
O=C1NC(=O)[C@]2(Cc3ccccc3N3CCN(c4ccccc4)CC32)C(=O)N1Cc1ccccc1 (stereo partly specified) | inconclusive: 89.1 µM [inhibitor, single point] | –
CCN1C(=O)N(CC)C(=O)C2(Cc3ccccc3N3CCN(c4ccccc4)CC32)C1=O (stereo unspecified) | – | inactive: -22.3%
CC(C(=O)c1ccc(Cl)cc1Cl)n1cncn1 (stereo unspecified) | inconclusive: 89.1 µM [inhibitor, single point] | –
COc1ccc(-c2nc(CSCC(=O)N3CCN(c4ccc(F)cc4)CC3)c(C)o2)cc1 | active: 50.1 µM | –
CC12CCCCC1N(O)CN2O (stereo unspecified) | inconclusive: 28.2 µM [inhibitor, single point] | –
O=[N+]([O-])c1ccc(N2CCNCC2)cc1N1CCCCC1 | inconclusive: 63.1 µM [inhibitor, partial curve, poor fit] | –
CN(C)c1ccc(CNC(=O)Cn2c(=O)oc3cc(S(=O)(=O)N4CCCCCC4)ccc32)cc1 | inconclusive: 56.2 µM [inhibitor, partial curve] | –
CC1=NN=C(c2ccc(N)cc2)c2cc3c(cc2C1)OCO3 | inconclusive: 89.1 µM [inhibitor, single point] | –
COc1ccc2cc1Oc1ccc(cc1)C[C@H]1c3cc(c(OC)cc3CCN1C)Oc1c(OC)c(OC)cc3c1[C@H](C2)N(C)CC3 | active: 50.1 µM | –
O=[N+]([O-])c1cc(Cl)c(O)c(-[n+]2c(-c3ccccc3)cc(-c3ccccc3)cc2-c2ccccc2)c1 | inconclusive: 39.8 µM [inhibitor, partial curve] | –
COc1ccc(N/N=C/c2c(O)n(-c3ccc(C)c(C)c3)c(=O)[nH]c2=O)cc1 | active: 35.5 µM | –
